Assay results taken from article PMC12136788.
Positions count from the first letter of the chain named. The list shows a part of the results.

B1: chr7:65705844:65705845:+_ENSG00000169902_ENST00000304842|hu_mus|hu_hu_hu_mus_False|1_68 (ssRNA)
RNA: GGGAGUUCUACAGUCCGACGAUCAAACGGAUCUUUGUUACAUAAAUAAGGUGCCGGCUCCCCAUGUUUAACGAUAACCUCCAGAAGGAAGGCUUGCAUGGCAGAAUCUAGCACUUCAUCUGUGACACCCGCCUCAUCCAGGCGCAACAGAGGAUUGAGCAUCA
B2: chr1:178664722:178664723:-_ENSMUSG00000057335_ENSMUST00000057037|mus_hu|FALSE|FALSE (ssRNA)
RNA: GGGAGUUCUACAGUCCGACGAUCAGGCCUUUGUCGUCGUCUUGCAGGGUCCUUAUAAAUGUGUAAGACAGACAGCAUUUACUAUUGAGUCCUACAGGGAAACACACAGAAGCAAUUCAUUGCUUGGGAGUGAAACUAUCAACUCAACAGAGGAUUGAGCAUCA
B3: 17919545_17922950_436_3pUTR_ENSG00000163029_ENST00000351948|human|control|control (ssRNA)
RNA: GGGAGUUCUACAGUCCGACGAUCUUCCACCAAGACCGACUAUGAGAGCUGUGAGUACUGCACUCUUCCCACUUCCAUUGUUGCCAACAACAAAGUUGACAUUAGAACCAAACUUAAAAGGUCCAAGCAUUGAAUGACACAUGACAACAGAGGAUUGAGCAUCA
B4: chr22:19452774:19452775:-_ENSG00000070010_ENST00000399523|hu_hu|hu_hu_hu_mus_False|28_38 (ssRNA)
RNA: GGGAGUUCUACAGUCCGACGAUCCUUCUCAUUGUAGUUGAUAGCAAUCACAUCUCCAGUCGUCAGACAGGCGAAGUUUCUCAAUGCAUUUUCUAAUACGGCUUUGGGGUUGGUGAUAUCCAGGAAGUCUGGGCUCUGAGGCUGCAACAGAGGAUUGAGCAUCA
B5: chr11:122930872:122930873:-_ENSG00000109971_ENST00000227378|hu_hu|FALSE|FALSE (ssRNA)
RNA: GGGAGUUCUACAGUCCGACGAUCAACCUUUUUGUCUAAGCCGUAAGCAAUAGCAGCAGCAGUUGGCUCAUUAAUAAUUCUAAGUACAUUGAGACCAGCAAUAGUUCCAGCAUCUUUGGUAGCCUGACGCUGAGAGUCAUUAAACAACAGAGGAUUGAGCAUCA
B6: chr12:27888400:27888401:+_ENSG00000061794_ENST00000081029|hu_hu|motif|central (ssRNA)
RNA: GGGAGUUCUACAGUCCGACGAUCGGUCUUGCAGUAUCGCUCUCCUACAAGUUUAAUUAAUUUCUUCUUUGCGUGAUCAUCGGAAUUCAAACUGGAAAGCUUUACUCUUAAGACUACUACUCGUGCUCUGGGGUUCCGAACAGACAACAGAGGAUUGAGCAUCA
B7: chr9:96305504:96305505:+_ENSG00000048828_ENST00000277165|hu_mus|motif|central (ssRNA)
RNA: GGGAGUUCUACAGUCCGACGAUCAGCUGCCCACUCCUUAAUGAUCAGUGGCGAGAAUUCUGGUGGAAGUCUGUUCUUUCGGAAAGCAAGUCUCUCAGUUUUCUUUCUGCUUUCUGCCAAACUAAACAGGACUCCGUAAACAUACAACAGAGGAUUGAGCAUCA
B8: chr4:40210074:40210075:-_ENSMUSG00000036822_ENSMUST00000042575|mus_mus|FALSE|FALSE (ssRNA)
RNA: GGGAGUUCUACAGUCCGACGAUCUAUAGGACACUUAGAAUCAGGAGACGCAUCAGCUGGUACUGUCUGCUGCAAUUUGCUAGUGCCAGCUUUAGGUGAAAAGUUGUCCAUUUUAAAUUCCUUAGCAGCUGAGGCCAUUAUCUCCAACAGAGGAUUGAGCAUCA
B9: chr5:72798818:72798819:+_ENSG00000145741_ENST00000335895|hu_mus|FALSE|FALSE (ssRNA)
RNA: GGGAGUUCUACAGUCCGACGAUCGAUGCUGGGAAGCAUUUCUGUCAGCUGCUUUGUCUCAGCGUGGCCUGUAAUGGUGAAGGUGUUUGCUGCCAGGGAUGCCUGAACUUUAGGGUUGUUAAAAUGGAUCACUGUUCCUUGGUUCAACAGAGGAUUGAGCAUCA
B10: chr6:107361193:107361194:+_ENSG00000130349_ENST00000311381|hu_mus|FALSE|FALSE (ssRNA)
RNA: GGGAGUUCUACAGUCCGACGAUCUUUCGUAGAUUUUUUGGAGUUUAUAUUGCUUUUGAGUCGUAUAGAAAAUGGAAAAUAACAUUCUGGAGAUACUAAAAGCUCUGGGAGUCGCAGAGAGAAAAUGUUACGGAAAAGUGUUUUCAACAGAGGAUUGAGCAUCA
B11: chr2:128036804:128036805:-_ENSG00000163161_ENST00000285398|hu_mus|FALSE|FALSE (ssRNA)
RNA: GGGAGUUCUACAGUCCGACGAUCGACAAUAAUCUUGUCAUUCCUCCUUUCAUGAAACUUGAUCAGAAACUGGCAGGCUCUGAAUUUGUUGGGAUUCAUGGUGUACAACAGGAUCCGUUUCUUUGUUUUGAUUGCCACAUACUCCAACAGAGGAUUGAGCAUCA
B12: chr2:48026839:48026840:+_ENSG00000116062_ENST00000540021|hu_hu|hu_hu_hu_mus_False|1_88 (ssRNA)
RNA: GGGAGUUCUACAGUCCGACGAUCAUAGUGAGCCACUAGCGUCCUAAAUCUCGAACAGUGGCGGUCAUCCGAAAACUGGCCGAUGAAAAACUUGCCCAGUGAAGUGUCCACAAAGCAAACACCAUACACACGAGUGUGGCCAGACAACAGAGGAUUGAGCAUCA
B13: chrX:153667120:153667121:+_ENSG00000203879_ENST00000447750|hu_hu|FALSE|FALSE (ssRNA)
RNA: GGGAGUUCUACAGUCCGACGAUCAUUCCAGUCUCGGCCUCGGCCCAUCGACUCAGGGGGCCCCUCCAGCAACUGAAAACGCUUAUACAGCUCCUCCAGGGGUGUGAUGGAGGAGCUCUCGCCCCCGUAGUAGGGGUUCCGGUCCAACAGAGGAUUGAGCAUCA
B14: chr12:39756943:39756944:-_ENSG00000139116_ENST00000544797|hu_mus|hu_hu_hu_mus_False|28_108 (ssRNA)
RNA: GGGAGUUCUACAGUCCGACGAUCGGUUUGGCUAUUACCCCCAAGGGAAUCCUGCAAGAGUCUUGUCAGCUUAGAGUCUCUGUAAGGGACAUGGGUGGCUCUCUUGCUCUUGUCUCCCAAGGCGCUGAUUACAUUCCCAAGAGCCAACAGAGGAUUGAGCAUCA
B15: chr11:77340908:77340909:-_ENSG00000074201_ENST00000525064|hu_hu|hu_hu_hu_mus_True|8_98 (ssRNA)
RNA: GGGAGUUCUACAGUCCGACGAUCGUUUGGAUCCCUGGAUAAUGCAUGUAAACUAAUGGUGGGGUAUUCCAGUGAGAAUCCUAAUCCCGAACCAUCUAACCAGGACAGGCGGCUCUCCGCGAUGUAAAGGGUACCAGUGCCGAGCAACAGAGGAUUGAGCAUCA
B16: chr7:65705844:65705845:+_ENSG00000169902_ENST00000304842|hu_mus|hu_hu_hu_mus_False|28_58 (ssRNA)
RNA: B1 RNA with G72A, A75G, C77U, C78U, C81U, A84U, G86A, U108C, G140A
B17: chr1:220276048:220276049:+_ENSG00000067704_ENST00000302637|hu_hu|hu_hu_hu_mus_True|18_18 (ssRNA)
RNA: GGGAGUUCUACAGUCCGACGAUCGCAAAUUGCCUGGUUGGCGGGAAUUGUCCAAGGCUGGGUGGUCCAAACUAAAACGCUAACAGGGGAUGAGGCAUCUGUAAGAGACUCCAACUUUGGAGAAGGCCUCAGGAGGGGGAAUCUCAACAGAGGAUUGAGCAUCA
B18: chr17:49043493:49043494:-_ENSG00000008294_ENST00000510283|hu_hu|FALSE|FALSE (ssRNA)
RNA: GGGAGUUCUACAGUCCGACGAUCUUUGAUUUGUUCAUAAUAUACUGAAGUUACCUAUAACACUGGUGCAGUAACACAGCUAGUUCCUCUGUAUUGUUAUGGUAGAACGGAUUUUGUAAUAUAAAGUUAACAGGAAAAAAUGCUCAACAGAGGAUUGAGCAUCA
B19: chr12:112501303:112501304:+_ENSMUSG00000021277_ENSMUST00000021706|mus_hu|FALSE|FALSE (ssRNA)
RNA: GGGAGUUCUACAGUCCGACGAUCACCAGCUCUACGCACAACGUUGCUUUCGGAGACCGUUGACGGCAUGCAGCAAGAUGACGGGAUGGAGAAACACACCUGCGGGCCUCCCUCAGCAGUCACCCGCCCACCCCUGACAUGGAGCAACAGAGGAUUGAGCAUCA
B20: 119844259_119844701_2432_CDS_ENSMUSG00000033902_ENSMUST00000066058|mouse|control|control (ssRNA)
RNA: GGGAGUUCUACAGUCCGACGAUCGAGAUGUUUGCAAUCGUUACUAAAUUUCAUGCCAGUGACAAUCUCUGAGUGGCCAAACAUGGUGGCCACACACUCGCCUGAGGAGAAGUCAAAAAUGGAGAGAUUCUUAUCGGAACAGCUCAACAGAGGAUUGAGCAUCA
B21: chr7:135840685:135840686:-_ENSMUSG00000048170_ENSMUST00000057557|mus_hu|FALSE|FALSE (ssRNA)
RNA: GGGAGUUCUACAGUCCGACGAUCGGCUGACCCUGUUUCCUUGGUUAACAAUUUCAAUUUAGGCCUUAUAGGAAAAAACGUAAGGGAUCCUUUAUCUGCCUCCAACUAGGUAAGUUAUUUGAUACCACUGACAGCUUAAAAAGUCAACAGAGGAUUGAGCAUCA
B22: chr6:79679595:79679596:-_ENSG00000146247_ENST00000275034|hu_mus|motif|central (ssRNA)
RNA: GGGAGUUCUACAGUCCGACGAUCUAUAUUCCAUCGUCUAUACUUUGCAUCAUCAAAUUGUUGUCUCAAGACUAGAAAAUCGGUGACGUCAGGCAUAUCAUGGUAUUUCAUGGUAAAUGAUCCACCGGUCAGUUUGCCAGUAUCCAACAGAGGAUUGAGCAUCA

Each binder was assayed against T1, UNK ZnF1-3 (human, UniProt Q9C0B0 31-174) (assay: nsRBNS (natural sequence RNA bind-n-seq); RBNS binding buffer (assumed for nsRBNS): 25 mM Tris pH 7.5, 150 mM KCl, 3 mM MgCl2, 0.01% Triton X-100, 500 ug/ml BSA, 20 U/ml SUPERase-In, 4 C; UNK is unkempt and MSI1 is Musashi-1; names of the RNAs are library labels; protein concentration not given here; high values mean tight binding).
T1 sequence: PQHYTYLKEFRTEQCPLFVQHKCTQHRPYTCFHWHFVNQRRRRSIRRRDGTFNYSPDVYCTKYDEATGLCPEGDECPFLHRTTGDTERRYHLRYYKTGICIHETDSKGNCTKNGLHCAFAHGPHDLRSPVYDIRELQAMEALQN

Row | Binder | binding signal [enrichment R]
1 | B1 | 0.372
2 | B2 | 0.9
3 | B3 | 0.977
4 | B4 | 0.861
5 | B5 | 1.62
6 | B6 | 0.753
7 | B7 | 1.11
8 | B8 | 0.734
9 | B9 | 0.581
10 | B10 | 1.15
11 | B11 | 0.804
12 | B12 | 1.14
13 | B13 | 0.662
14 | B14 | 0.827
15 | B15 | 1.27
16 | B16 | 0.455
17 | B17 | 2.49
18 | B18 | 1.29
19 | B19 | 1.36
20 | B20 | 1.03
21 | B21 | 0.989
22 | B22 | 0.645
